About 180 (0.12%) of roughly 150,000 compounds were called active. This list was built around the results that the source calls inconclusive (neither active nor inactive); the mix of calls is not that of the screen. The call rests on the fitted dose curve; in most records, active means well fitted cell-killing curve with a large enough effect; inconclusive means small, poorly fitted or top-dose-only effect, or effect the other way; inactive means flat fitted curve, though single readings scatter. Potencies of inconclusive entries are doubtful fits and often do not repeat.
assay: GF-AFC viability counterscreen for inhibitors of alpha-synuclein gene (SNCA) expression; settings: HEK-293-SNCA-luc viability, GF-AFC fluorescence, 24 h; activity change, negative = cytotoxicity: at 57.1 µM (top of the series) unless noted; further: nearly all actives have a fitted effect of over 30% in size;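 on activity change, negative = cytotoxicity: 0% = DMSO-treated cells and -100% = medium-only wells without cells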
Outline: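 HEK-293-SNCA-luc cells (1500/well) plated 24 h, then exposed 24 h to a dilution series; GF-AFC added 30 min at 37C, fluorescence 405/540 nm; normalised to medium-only and DMSO wells, Hill fit.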
Potency means the concentration at half of the fitted maximal effect; tags describe the fitted curve by direction and shape.

Compound	activity change, negative = cytotoxicity	Potency
CCCNC(=O)CC(c1ccccc1OC)c1c[nH]c2c(CC)cccc12 (configuration not stated)	inactive: 0.703%	–
Cc1cc(C)n(CC(=O)N[C@@H]2CN(c3ncccn3)C[C@H]2CN(C)C)n1	inactive: 10.9%	–
Cc1cccc(-c2nnc(SCc3cc(=O)c4cccc(Cl)c4[nH]3)n2C)c1	–	inconclusive: 12.6 µM [cytotoxic, partial curve]
O=C(NCc1ccco1)c1ccc(Cn2c(SCc3ccc(F)cc3)nc3cccnc32)cc1	–	inconclusive: 25.1 µM [cytotoxic, partial curve]
COc1ccc(-n2nc(C)c([C@@H]3C=C[C@@H](NS(=O)(=O)c4cccs4)C3)c2C)cc1	–	inconclusive: 28.2 µM [cytotoxic, partial curve, poor fit]
CC/C(C)=C/C(=O)OC1C(OC2(C)CCC3C(C4C(C)CCC42)C3(C)C)OC(C)C(O)C1O (configuration not stated)	inactive: -11.2% [at 23.9 µM]	–
COCCN1C(=O)c2ccccc2C(C(=O)NCCC2=CCCCC2)C12CCCC2 (configuration not stated)	–	inconclusive: 12.6 µM [cytotoxic, partial curve, poor fit]
c1ccc(CN2CCNc3cnc(Nc4ccc(N5CCOCC5)cc4)cc3C2)cc1	–	inconclusive: 31.6 µM [cytotoxic, partial curve]
O=C(c1n[nH]c2c1CCCCCC2)N1CCC(c2nc(C3CCOCC3)no2)C1 (configuration not stated)	–	inconclusive: 10 µM [cytotoxic, partial curve, poor fit]
Cc1ccccc1-c1nn2c(=O)cc(CN3CCN(C(=O)/C=C/c4ccccc4)CC3)nc2s1	–	inconclusive: 7.08 µM [cytotoxic, partial curve]
CSc1cccc(NC(=O)O[C@@H]2CC[C@]3(C)C(CC[C@@H](O)[C@H]3CC(=O)N3CCCC3)[C@]2(C)CO)c1 (some centres not stated)	–	inconclusive: 22.4 µM [cytotoxic, single point]
O=C(c1ccc(Cl)cc1)N(CC1CCOC1)C1CC1 (configuration not stated)	inactive: -13.9%	–
CC(C)CCN1CCc2ncc(C(=O)NCCOc3ccccc3)n2CC1	–	inconclusive: 8.91 µM [cytotoxic, full curve, poor fit]
O=C(Nc1ccc2c(N3CCCC3)ncnc2c1)c1ccc(Cl)cc1	–	inconclusive: 35.5 µM [cytotoxic, single point]
Cc1cccc(N(CC(O)Cn2c3ccccc3c3ccccc32)S(=O)(=O)c2ccc(F)cc2)c1 (configuration not stated)	–	inconclusive: 39.8 µM [cytotoxic, single point]
Cc1nn2c(c1-c1ccccc1Oc1ccccc1)N(Cc1cccc(O)c1)CCC2	–	inconclusive: 5.62 µM [cytotoxic, full curve]
COCCNC(=O)c1cnc2c(c1)N(C(=O)Cc1ccc(C(C)C)cc1)CCC2	inactive: 1.01% [at 87.6 µM]	–

Source: PubChem BioAssay AID1671193 (National Center for Advancing Translational Sciences (NCATS), 2021)
